Test results published in PubChem BioAssay AID2546 (National Center for Advancing Translational Sciences (NCATS), 2010).
Among all 310,000 compounds or so, about 11,000 (3.5%) were called active. Inconclusive results, whose numbers are uncertain, are shown with a selection of clear calls. Calls come from the whole dose curve; as a rule, active = well fitted inhibition curve with a large enough effect; inconclusive = small, poorly fitted or top-dose-only effect, or effect the other way; inactive = flat fitted curve, though single readings scatter. Potencies of inconclusive entries are left out as doubtful fits.

assay: VP16 counterscreen qHTS for inhibitors of ROR gamma transcriptional activity; details: Drosophila S2 Gal4-VP16 UAS-luciferase, luminescence, 20 h; activity, negative = inhibition: at 53.6 µM (top of the series);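 note: Gal4-VP16 expression switched on by copper sulfate through the metallothionein promoter; nearly all actives have a fitted effect of over 50% in size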
% is set by controls: 0 for no effect and ±100 for the full control effect; potency is the fitted concentration of half-maximal effect; tags give direction and shape of the fitted curve.

SMILES | activity, negative = inhibition | Potency
CCCc1cc(=O)n(-c2nc3ccccc3s2)[nH]1 | inactive: 0.245% | 
N#Cc1c(-c2ccccc2)c(-c2ccccc2)nn(CC(=O)NNC(=O)Nc2ccc(Cl)c(Cl)c2)c1=O |  | inconclusive [inhibitor, single point]
CCOC(=O)N1CCN(C(=O)COc2ccc(Cl)cc2C)CC1 | inactive: 13.7% | 
CC(=O)N1CCN(C(=S)NC(=O)c2c(-c3ccccc3Cl)noc2C)CC1 |  | active: 5.01 µM
Cc1cccc(-n2c(=S)[nH]c3sc4c(c3c2=O)CCc2ccccc2-4)c1 |  | active: 1.41 µM
COC(=O)c1cc(S(=O)(=O)NCc2cccc(Br)c2)c[nH]1 | inactive: -7.33% | 
CC(=O)OCC1OC(C#Cc2ccccc2)C=CC1O (configuration not stated) | inactive: 3.13% [at 10 µM] | 
COc1cccc(Cn2cc(/C=N/NC(=O)c3cc(O)cc(O)c3)c3ccccc32)c1 | inactive: -2.82% | 
CC1CC(C)(C)NC(=S)N1CCCC(=O)N1CCN(c2ccccc2F)CC1 (configuration not stated) |  | inconclusive [inhibitor, single point]
Cc1ccc(OCCSc2nc(NC(C)C)nc(NC(C)C)n2)cc1 |  | inconclusive [inhibitor, single point]
Cc1ccnc(NS(=O)(=O)c2ccc3ccccc3c2)n1 | inactive: -3.41% | 
O=C(Nc1ccc(-n2ccc(C(F)(F)F)n2)cc1)Nc1cccc(Cl)c1 |  | active: 17.8 µM
O=C(Nc1ccc(S(=O)(=O)N2CCc3ccccc32)cc1)c1ccc2c(c1)OCO2 | inactive: 0.683% [at 0.365 µM] | 
COc1cccc(NS(=O)(=O)c2ccc(NC(C)=O)cc2)c1 | inactive: -7.32% [at 0.365 µM] | 
Cc1cc(CN(C)C(=O)c2ccc3nc(Cc4ccccc4F)oc3c2)on1 |  | inconclusive [activator, full curve, poor fit]
O=C(Nc1ccc2nc[nH]c2c1)c1ccco1 |  | inconclusive [inhibitor, single point]
COC(=O)N/N=C/c1sc(N2CCCCC2)nc1-c1cccs1 |  | active: 0.794 µM
c1ccc(-c2csc3ncnc(NCCN4CCOCC4)c23)cc1 |  | inconclusive [inhibitor, single point]
C=CCn1c(N)cc(=O)nc1SCC(=O)NC(C)c1ccccc1 (configuration not stated) |  | active: 17.8 µM
O=C(NC12CC3CC(CC(C3)C1)C2)c1ccc(-c2ccc(Br)cc2)o1 |  | inconclusive [activator, single point]
O=[N+]([O-])c1cc(/C=N/NC(=S)Nc2ccccc2Cl)ccc1Cl |  | active: 3.55 µM
S=C(Nc1cccc2ccccc12)NC1CCCCC1 |  | active: 10 µM
